Results reported in PubChem BioAssay (NCATS).
This list was built around the results that the source calls inconclusive (neither active nor inactive); the mix of calls is not that of the screen. For some of these results: No potency is given beside an inconclusive call; the fits are too rough. Activity calls are given as the source filed them. The call rests on the fitted dose curve; in most records, active means well fitted curve in the direction sought with a large enough effect; inconclusive means small, poorly fitted or top-dose-only effect, or another doubt; inactive means no such curve, though single readings can be large; an effect the other way counts as inactive or inconclusive.

Key:
[1] = Primary qHTS for small molecule stabilizers of the endoplasmic reticulum resident proteome: Secreted ER Calcium Modulated Protein (SERCaMP) assay (AID 1508630); settings: SH-SY5Y GLuc-SERCaMP (Gaussia luciferase released on ER calcium loss) secretion, thapsigargin, luminescence; series mostly up to 38.4 µM
Outline: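 GLuc-SERCaMP-expressing SH-SY5Y cells, pretreated 16 h with compound, are challenged with thapsigargin to empty ER calcium stores; after 4 h, coelenterazine is added directly to the medium and luminescence is imaged.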

[2] = Quantitative High-Throughput drug screen in 47 multiple myeloma cell lines against the NCATS MIPE library collection: EJM_DSMZ cell viability assay (AID 1918926; further: nearly all actives have a fitted effect of over 30% in size)
Outline: (§1)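 CellTiter-Glo ATP luminescence gave viability after 48 h compound treatment at 37C of 500 multiple myeloma cells per well. Normalisation used DMSO-only wells as 100% and media-only wells as 0% viability; primary qHTS of approved and investigational drugs.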

[3] = Quantitative High-Throughput drug screen in 47 multiple myeloma cell lines against the NCATS MIPE library collection: U266_ATCC cell viability assay (AID 1919864); further: nearly all actives have a fitted effect of over 35% in size
Outline: (§2)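 Inhibition of viability over 48 h was scored by ATP content (CellTiter-Glo) in 500-cell wells. Zero and full viability were defined by media-only and DMSO-only wells.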

[4] = Quantitative High-Throughput drug screen in 47 multiple myeloma cell lines against the NCATS MIPE library collection: PCM6_Riken cell viability assay (AID 1919870); further: nearly all actives have a fitted effect of over 30% in size
Outline: as §2

[5] = tested on: CASKI; assay: Primary qHTS to identify gynecologic anti-cancer compounds using libraries of approved drugs and bioactive compounds (AID 1345084); settings: Gynecologic cancer cell panel viability, ATPlite luminescence, 48 h; series mostly up to 57.5 µM; further: nearly all actives have a fitted effect of over 55% in size
Outline: (§3)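 Cytotoxicity screen measuring ATP content by luciferase luminescence. Each compound is applied at five concentrations for 48 h at 37 C with 5% CO2.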

[6] = tested on: OV90; assay: as above; settings: Gynecologic cancer cell panel viability, ATPlite luminescence, 48 h; series mostly up to 57.5 µM
Outline: as §3

[7] = tested on: PA-1; assay: as above; settings: Gynecologic cancer cell panel viability, ATPlite luminescence, 48 h; series mostly up to 57.5 µM
Outline: as §3

[8] = qHTS assay to identify inhibitors of the type 1 interferon - major histocompatibility complex class I in skeletal muscle: Counter screen cell viability and HiBit confirmation (AID 1347412); settings: iHSKM muscle cells + IFN-b, HiBiT or CellTiter-Glo, 24 h; further: nearly all actives have a fitted effect of over 60% in size
Outline: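 Luminescence read-out: Nano-Glo HiBiT lytic signal from C-terminally HiBiT-tagged HLA-B in CRISPR-edited human myoblasts, plus CellTiter Glo ATP as viability counter screen. IFN-beta 4.0 ng/ml; 24 hrs treatment at 37 C, 5% CO2.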

[9] = qHTS Assay for Identifying Gametocytocidal Compounds (AID 743244); settings: P. falciparum 3D7 stage III-V gametocytes, alamarBlue, 72 h; max response: hits give low values
Outline: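 Stage III–V gametocytes of P. falciparum 3D7 were seeded at 20,000 cells/well onto pre-dispensed compounds. After 72 h, 37 °C, 5% CO2, alamarBlue was added for another 24 h.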

[10] = tested on: Zika virus NS2B-NS3 protease; assay: Primary screen GU AMC qHTS for Zika virus inhibitors (AID 1347154); further: nearly all actives have a fitted effect of over 70% in size
Outline: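 Fluorogenic AMC-substrate cleavage by noncovalent NS2B-NS3 protease complex (25 nM, pH 8.0 Tris buffer with Tween 20) followed for 15 minutes at room temperature (~20% conversion). Percent inhibition from ex340/em450 signal change, fitted by 4-parameter Hill equation.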

[11] = Quantitative High-Throughput drug screen in 47 multiple myeloma cell lines against the NCATS MIPE library collection: ARP1_JJKsccF8 cell viability assay (AID 1918928; further: nearly all actives have a fitted effect of over 40% in size); settings: ARP1 myeloma cells viability, CellTiter-Glo ATP, 48 h; viability: at 45.8 µM (top of the series)
Outline: (§4)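 Myeloma cells, 500 per well, were exposed to MIPE 4.0 drugs by pin transfer for 48 h at 37 °C, 5% CO2. Viability was read as ATP luminescence with CellTiter-Glo, normalised to DMSO-only (100%) and medium-only (0%) wells.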

[12] = Quantitative High-Throughput drug screen in 47 multiple myeloma cell lines against the NCATS MIPE library collection: KMM1_JCRB cell viability assay (AID 1918960); further: nearly all actives have a fitted effect of over 30% in size
Outline: as §4

[13] = Quantitative High-Throughput drug screen in 47 multiple myeloma cell lines against the NCATS MIPE library collection: KMS12BM_JCRB cell viability assay (AID 1918971); further: nearly all actives have a fitted effect of over 35% in size
Outline: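 qHTS of the MIPE 4.0 collection: 500 myeloma cells/well, 48 h drug exposure at 37C in 5% CO2, then CellTiter-Glo for 5 min at room temperature before luminescence reading.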

[14] = Quantitative High-Throughput drug screen in 47 multiple myeloma cell lines against the NCATS MIPE library collection: KMS12PE_JCRB cell viability assay (AID 1918972); further: nearly all actives have a fitted effect of over 30% in size
Outline: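 Steps: seed 500 cells per well; pin-transfer MIPE 4.0 library; incubate 48 h at 37C, 5% CO2, humidified; add CellTiter-Glo, 5 min room temperature; read luminescence.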

[15] = Quantitative High-Throughput drug screen in 47 multiple myeloma cell lines against the NCATS MIPE library collection: KMS11_JCRBsus cell viability assay (AID 1919873); further: nearly all actives have a fitted effect of over 50% in size
Outline: as §2

[16] = qHTS of pediatric cancer cell lines to identify multiple opportunities for drug repurposing: Primary screen for SK-N-MC cells (AID 1347093); settings: SK-N-MC viability, CellTiter-Glo luminescence, 48 h; activity change, negative = cytotoxic: at 46 µM (top of the series)
Outline: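 Metabolically active cells were quantified by ATP-dependent luminescence (CellTiter-Glo, 15 min at room temperature) following 48 h treatment. Cells had been plated at 500-1,000 per well and settled for 5 h beforehand.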

[17] = qHTS of pediatric cancer cell lines to identify multiple opportunities for drug repurposing: Primary screen for RD cells (AID 1347104); further: nearly all actives have a fitted effect of over 55% in size
Outline: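 Cells seeded at 500-1,000 cells/well in growth media, rested 5 hours at 37 degrees C, 5% CO2, then dosed; MIPE compounds at 11-point (from 0.78 nM) and NPC at 8-point (from 0.59 nM) final concentrations. Viability by CellTiter-Glo luminescence after 48 hours.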

[18] = Quantitative High-Throughput drug screen in 47 multiple myeloma cell lines against the NCATS MIPE library collection: RPMI8226_ATCC cell viability assay (AID 1919871); further: nearly all actives have a fitted effect of over 30% in size
Outline: as §2

[19] = Quantitative High-Throughput drug screen in 47 multiple myeloma cell lines against the NCATS MIPE library collection: AMO1_DSMZ cell viability assay (AID 1918927; further: nearly all actives have a fitted effect of over 30% in size)
Outline: as §1
Potency means the concentration at half of the fitted maximal effect; tags describe the fitted curve by direction and shape.

Which Potency [1] does the source give for COc1c(OCCCN2CCOCC2)ccc2c3n(c(=NC(=O)c4cnc(N)nc4)nc12)CCN3 here?
Its Potency is “inactive”.

And the Potency [2]?
Its Potency is inconclusive [cytotoxic, partial curve].

And the Potency [3]?
The Potency was active: 0.645 µM.

What about the Potency [4] of the same compound?
The Potency was inconclusive [cytotoxic, partial curve].

And the Potency [5]?
The Potency was active: 0.112 µM.

What about the Potency [6] of the same compound?
Its Potency is inconclusive [cytotoxic, full curve].

And the Potency [7]?
The Potency was active: 0.631 µM.

What about the Potency ([8]; HiBiT) of the same compound?
The Potency was inconclusive [inhibitor, full curve].

What about the Potency ([8]; Viability) of the same compound?
Its Potency is inconclusive [cytotoxic, full curve].

For CC(C)Nc1cc(-c2c[nH]c(C(=O)N[C@H](CO)c3cccc(Cl)c3)c2)c(Cl)cn1, which Potency [6] is on record?
Its Potency is inconclusive [cytotoxic, full curve].

And the Potency [7]?
The Potency was inconclusive [cytotoxic, single point].

For CN([C@@H](Cc1ccc(OS(=O)(=O)c2cccc3cnccc23)cc1)C(=O)N1CCN(c2ccccc2)CC1)S(=O)(=O)c1cccc2cnccc12, which Potency [9] is on record?
Its Potency is active: 18.7 µM.

With CC(C)c1onc(-c2c(Cl)cccc2Cl)c1COc1ccc(/C=C/c2cccc(C(=O)O)c2)c(Cl)c1 as the compound, how does the Potency [10] read?
The Potency was active: 6.7 µM.

Which Potency [1] does the source give for COc1cc2ncnc(Nc3ccc(F)c(Cl)c3)c2cc1OCCCN1CCOCC1 here?
The Potency was inconclusive [inhibitor, full curve].

And the Potency [2]?
The Potency was active: 6.05 µM.

What about the Potency [11] of the same compound?
Its Potency is active: 48.1 µM.

And the Potency [12]?
The Potency was active: 8.55 µM.

What about the Potency [13] of the same compound?
Its Potency is active: 34 µM.

What about the Potency [14] of the same compound?
The Potency was active: 3.03 µM.

And the Potency [15]?
The Potency was active: 21.5 µM.

What about the Potency [5] of the same compound?
Its Potency is inconclusive [cytotoxic, full curve].

What about the Potency [6] of the same compound?
Its Potency is inconclusive.

With CN(C)CC(C)(C)CNc1nn2c(-c3ccccc3)nnc2cc1C1CCC1 as the compound, how does the Potency [16] read?
Its Potency is active: 0.469 µM.

And the Potency [17]?
The Potency was inconclusive [cytotoxic, partial curve].

What about the Potency [2] of the same compound?
Its Potency is inconclusive [cytotoxic, partial curve, poor fit].

What about the Potency [11] of the same compound?
Its Potency is inconclusive [cytotoxic, partial curve, poor fit].

And the Potency [12]?
Its Potency is inconclusive [cytotoxic, full curve].

And the Potency [13]?
Its Potency is inconclusive [cytotoxic, partial curve, poor fit].

What about the Potency [14] of the same compound?
Its Potency is inconclusive [cytotoxic, full curve].

What about the Potency [3] of the same compound?
The Potency was inconclusive [cytotoxic, full curve, poor fit].

What about the Potency [4] of the same compound?
Its Potency is inconclusive [cytotoxic, partial curve].

What about the Potency [18] of the same compound?
The Potency was “inactive”.

With O=C(CCCN1CCN(c2ccccn2)CC1)c1ccc(F)cc1 as the compound, how does the Potency [16] read?
The Potency was inconclusive [cytotoxic, partial curve, poor fit].

Which Potency [2] does the source give for Cc1cnc(-c2cnc(NCCNc3ccc(C#N)cn3)nc2-c2ccc(Cl)cc2Cl)[nH]1 here?
The Potency was inconclusive [cytotoxic, partial curve].

What about the Potency [19] of the same compound?
Its Potency is inconclusive [rising, partial curve, poor fit].

What about the Potency [11] of the same compound?
The Potency was inconclusive [cytotoxic, partial curve].

And the Potency [12]?
Its Potency is “inactive”.

What about the Potency [13] of the same compound?
Its Potency is inconclusive [rising, full curve].

What about the Potency [14] of the same compound?
The Potency was inconclusive [rising, full curve, poor fit].

And the Potency [3]?
The Potency was inconclusive [rising, full curve, poor fit].

What about the Potency [18] of the same compound?
Its Potency is inconclusive [rising, full curve].

What about the Potency [15] of the same compound?
The Potency was inconclusive [cytotoxic, single point].

And the Potency [6]?
Its Potency is inconclusive [rising, full curve, poor fit].
